Measured values from paper PMC4336329 (PLoS ONE, 2015).
In all, about 310,000 compounds went through this assay and about 14,000 (4.5%) showed an effect of 50% or more. Effects have a minus sign here. The list shows a part of the results.

These compounds were tested against human ether-à-go-go-related gene (hERG) potassium channel (human, UniProt Q12809) (assay: primary screen, population patch clamp on CHO cells stably expressing hERG).
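Further: peak tail current of the secondary pulse compared with the same well before compound.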

Chain of human ether-à-go-go-related gene (hERG) potassium channel (Q12809 whole entry, looked up): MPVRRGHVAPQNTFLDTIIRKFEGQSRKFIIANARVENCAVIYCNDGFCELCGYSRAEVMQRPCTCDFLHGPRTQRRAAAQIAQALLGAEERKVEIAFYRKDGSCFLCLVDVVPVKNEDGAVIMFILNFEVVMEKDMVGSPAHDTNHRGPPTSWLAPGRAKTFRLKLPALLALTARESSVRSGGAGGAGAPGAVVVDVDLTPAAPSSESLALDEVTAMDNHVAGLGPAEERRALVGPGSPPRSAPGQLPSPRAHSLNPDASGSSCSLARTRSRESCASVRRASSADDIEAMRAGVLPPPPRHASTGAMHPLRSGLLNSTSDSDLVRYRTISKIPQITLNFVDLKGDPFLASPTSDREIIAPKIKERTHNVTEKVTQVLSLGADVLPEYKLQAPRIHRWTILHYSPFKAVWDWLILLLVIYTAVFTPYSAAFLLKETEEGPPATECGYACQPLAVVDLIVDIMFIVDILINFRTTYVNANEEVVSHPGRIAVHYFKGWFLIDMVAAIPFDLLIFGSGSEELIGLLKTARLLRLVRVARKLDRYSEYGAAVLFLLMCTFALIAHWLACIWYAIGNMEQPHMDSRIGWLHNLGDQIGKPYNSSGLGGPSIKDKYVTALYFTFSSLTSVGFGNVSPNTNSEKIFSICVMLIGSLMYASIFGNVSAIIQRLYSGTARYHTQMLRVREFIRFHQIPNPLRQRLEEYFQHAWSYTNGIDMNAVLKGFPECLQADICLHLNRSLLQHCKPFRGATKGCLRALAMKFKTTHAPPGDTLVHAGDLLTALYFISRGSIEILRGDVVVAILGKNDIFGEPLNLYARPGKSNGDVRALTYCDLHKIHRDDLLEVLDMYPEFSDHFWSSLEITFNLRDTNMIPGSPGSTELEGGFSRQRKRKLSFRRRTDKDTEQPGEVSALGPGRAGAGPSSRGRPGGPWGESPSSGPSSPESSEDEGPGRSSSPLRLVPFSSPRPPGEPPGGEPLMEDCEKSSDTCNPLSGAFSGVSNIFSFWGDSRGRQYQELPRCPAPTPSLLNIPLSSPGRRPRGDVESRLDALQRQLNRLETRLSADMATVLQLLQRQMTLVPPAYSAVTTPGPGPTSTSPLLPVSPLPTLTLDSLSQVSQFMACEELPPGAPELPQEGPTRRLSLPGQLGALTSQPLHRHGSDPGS

Structure (SMILES) | hERG current change (%, negative = inhibition) at 10uM
COc1ccc(-c2cn3cc(C)ccc3n2)cc1OC.Cl | -3.44%
CCN(CC)CCn1c(=S)[nH]c2ncccc2c1=O | -20.5%
CCOC(=O)C(NC(=O)NCc1ccc(OC)cc1)(OCC)C(F)(F)F (stereo not shown) | 15.1%
CC1N(O)C(C)(C)C(c2ccccc2)=[N+]1[O-] (stereo not shown) | -2.8%
Clc1ccc(-c2cccs2)nn1 | 2.2%
CCOc1ccc(CC(=O)N2CCN=C2SC)cc1 | 14.8%
Cn1c(N/N=C2\CCCc3ccccc32)nc2c1c(=O)n(Cc1ccccc1)c(=O)n2C | -1.03%
CC(C)C1N(C(=O)CN2CCCC2)CCN1S(=O)(=O)c1ccccc1 (stereo not shown) | 11%
Cn1c(CS(=O)Cc2c(Cl)cccc2Cl)nnc1SCc1c(Cl)cccc1Cl (stereo not shown) | -45.1%
CCn1c(=N)c(S(=O)(=O)c2ccccc2)cc2c(=O)n3ccccc3nc21 | -13.5%
O=C(NC(NC(=S)Nc1ccccc1Cl)C(Cl)(Cl)Cl)c1cccc(Cl)c1 (stereo not shown) | -0.367%
CC(=O)c1cccc(NC(=O)c2cc(-c3cccs3)on2)c1 | 27%
CN1CCN(CCCNC(=O)C2CC(=O)N(C3CCCCC3)C2)CC1 (stereo not shown) | 6.41%
COc1ccccc1NC(=O)c1ccccc1NC(=O)c1cc(Cl)ccc1NC(=O)c1ccco1 | 2.97%
CC(OC(=O)CCN1C(=O)C2CC=CCC2C1=O)C(=O)Nc1cccc(Cl)c1 (stereo not shown) | -13.9%
CC(C)C(=O)c1cn(Cc2ccc(C#N)cc2)c2ccccc12 | -75.6%
CC1CCN(CCCNC(=O)c2ccc3c(=O)n(CCc4ccccc4)c(=O)[nH]c3c2)CC1 | -20.4%
Cc1nc2ccccc2c2oc(C(=O)NCc3ccccn3)cc12 | -31.2%
Cc1ccc(NS(=O)(=O)N(C)C)cc1 | 5.27%
Cc1ccsc1C1C(C#N)=C(N)OC2=C1C(=O)CCC2 (stereo not shown) | -2.2%

Structure (SMILES) | hERG current change (%, negative = inhibition) at 10uM
Cc1cccc(C(=O)NC2CCCCCCC2)c1 | -11.8%
CCOC(=O)N1CCC(NCCNC(=O)c2cccs2)CC1 | 3.91%
Cc1cc(Cl)nc(Cl)c1C(=O)NC(=O)NCCC(C)C | 6.83%
COc1ccc(-n2nnnc2SCC(=O)Nc2ccc(OC)cc2OC)cc1 | 15.8%
COc1ccccc1S(=O)(=O)Cc1ccc(C(=O)NCCN2CCCC2)o1 | -8.12%
CC1Sc2ccc(S(=O)(=O)CCC(=O)NC3CCCC(C)C3C)cc2NC1=O (stereo not shown) | 16.4%
O=C(NC1CCCCC1)C(c1ccco1)N(Cc1cccnc1)C(=O)C1COc2ccccc2O1 (stereo not shown) | -18.8%
CCOC(=O)c1cccc(NC(=O)c2c(NCc3ccccc3)[nH]c(=O)[nH]c2=O)c1 | -0.388%
CCN(CC)CCn1c(=S)[nH]c2ccc(Br)cc2c1=O | -66.7%
CCOC(=O)NCCc1ccc(OC)cc1 | 8.6%
CCNC(=S)Nc1nc2c(cc1C(=O)OCC)CCCC2 | 17.7%
Cc1ccc(NS(=O)(=O)c2ccc3c(c2)CC(=O)N3)cc1C | 7.62%
COc1ccc(CCN=C(N)NS(=O)(=O)c2cccs2)cc1OC | 12%
Cc1cccc2cc(CNCc3ccccc3)c(Cl)nc12 | 10.1%
C[C@H]1CN=C(N(C)C)N1CCC1CCCCC1 | -2.84%
CC(C)C(NS(=O)(=O)c1cccs1)C(=O)NCCCN1CCCCCC1 (stereo not shown) | 19.4%
COc1ccc(Oc2ccc(C(F)(F)F)cc2NC(=O)c2ccc(OC)cc2)cc1 | 12.5%
CC(C)c1cccc(C(C)C)c1NC(=S)Nc1cccc(Cl)c1 | 5.01%
Cc1cc(NC(=O)Cn2c(=O)oc3ccc(Cl)cc32)no1 | 22.2%
Cc1cc(Cl)cc(C)c1OCCCCN1CCOCC1 | -34.3%

Structure (SMILES) | hERG current change (%, negative = inhibition) at 10uM
O=C(O)C1=NN(c2ccccc2)C(=O)CC1 | 19.6%
COCCCNc1nc2c(c(=O)n(Cc3ccc(Cl)cc3)c(=O)n2C)n1C | 0.305%
Cn1cc(C(=O)Nc2ccc(C#N)cc2)c2ccccc2c1=O | -14.2%
CCOc1ccc2nc(NC3=NC(c4ccc(OC)cc4)CC(=O)N3)nc(C)c2c1 (stereo not shown) | 4.52%
Cc1ccc(S(=O)(=O)N2CCCC2C(=O)NCCc2nc3ccccc3[nH]2)cc1 (stereo not shown) | -12.7%
CCOC(=O)CSC(=S)NC(=O)c1ccc(OC)cc1 | 16.4%
Cc1c(Cl)cccc1NC(=O)CNC(=O)c1ccc(F)cc1 | 27.4%
COc1cc(CN2CCN(S(=O)(=O)c3ccc(F)cc3)CC2)cc(OC)c1OC.O=C(O)C(=O)O | -5.89%
Cc1ccccc1NC(=O)C(=O)NCCc1c[nH]c2ccccc12 | -2.22%
CC1(C)OC(=O)C(=CSc2ccc(C(C)(C)C)cc2)C(=O)O1 | -2.72%
Cn1ncc(N=Cc2c(O)ccc3ccccc23)c1C(=O)N1CCOCC1 | 2.54%
O=C(N/N=C/c1c(O)n(C2CCCCC2)c(=S)[nH]c1=O)c1ccccc1O | 11.3%
O=C(NCCCN1CCOCC1)c1ccc2c(c1)N(Cc1ccccc1)C(=O)c1ccccc1S2=O (stereo not shown) | -13.6%
O=C1C(=O)N(CC2CCCO2)C(c2ccccc2[N+](=O)[O-])/C1=C(/O)c1ccccc1 (stereo not shown) | 21.6%
CCOC(=O)C1=C(C)Nc2ccccc2N=C1NC(=O)/C=C/c1ccc(OC)cc1OC | -13.8%
O=C(NCc1ccccc1)c1ccc2nc(-c3ccco3)c(-c3ccco3)nc2c1 | -10.7%
CN(Cc1ccccc1)c1ncnc2sccc12 | -8.6%
CN(c1ccc(C(=O)NCc2ccccn2)cc1)S(=O)(=O)c1ccc(Cl)cc1 | -7.33%
